Reference: the antibiotic and cytotoxicity screens of Wong et al. (2023)
Some of the results follow.

Legend:
HSkMC = human skeletal muscle cells; experiment: cytotoxicity call (relative viability < 0.9); conditions: 10 µM
HepG2 = experiment: cytotoxicity call (relative viability < 0.9); conditions: 10 µM
S. aureus RN4220 = experiment: growth inhibition call (relative growth <= 0.2); conditions: 50 µM

CN(C)S(=O)(=O)Nc1ccc(C(=O)O)cc1
inactive: cytotoxicity call (HSkMC) | cytotoxicity call (HepG2) | growth inhibition call (S. aureus RN4220)

C[C@H]1CN([C@@H](C)CO)C(=O)Cc2cc(NS(=O)(=O)c3ccc(F)cc3)ccc2O[C@H]1CN(C)S(=O)(=O)c1ccc(F)cc1
inactive: cytotoxicity call (HSkMC) | cytotoxicity call (HepG2) | growth inhibition call (S. aureus RN4220)

Cn1cc(C(=O)N2C[C@@H]3COC[C@@]3(CNS(C)(=O)=O)C2)cn1
inactive: cytotoxicity call (HSkMC) | cytotoxicity call (HepG2) | growth inhibition call (S. aureus RN4220)

C[C@@H]1O[C@@H](OC[C@H]2O[C@@H](Oc3c(-c4ccc(O)cc4)oc4cc(O)cc(O)c4c3=O)[C@H](O)[C@@H](O)[C@@H]2O)[C@H](O)[C@H](O)[C@H]1O
inactive: cytotoxicity call (HSkMC) | cytotoxicity call (HepG2) | growth inhibition call (S. aureus RN4220)

O=C(C[C@@H]1C=C[C@@H](NC(=O)c2ccc(F)cc2)[C@@H](CO)O1)NCc1ccncn1
inactive: cytotoxicity call (HSkMC) | cytotoxicity call (HepG2) | growth inhibition call (S. aureus RN4220)

C[C@H](CO)N1C[C@H](C)[C@@H](CN(C)C(=O)Nc2cccc3ccccc23)Oc2c(NC(=O)Nc3ccc4c(c3)OCO4)cccc2C1=O
inactive: cytotoxicity call (HSkMC) | cytotoxicity call (HepG2) | growth inhibition call (S. aureus RN4220)

Cc1ccc(S(=O)(=O)N(C)C[C@H]2OCCCC[C@H](C)Oc3ccc(NC(=O)c4ccccc4)cc3C(=O)N([C@@H](C)CO)C[C@@H]2C)cc1
inactive: cytotoxicity call (HSkMC) | cytotoxicity call (HepG2) | growth inhibition call (S. aureus RN4220)

CC(C)NC(=O)Nc1ccc2c(c1)CC(=O)N([C@@H](C)CO)C[C@@H](C)[C@H](CN(C)C(=O)NC1CCCCC1)O2
inactive: cytotoxicity call (HSkMC) | cytotoxicity call (HepG2) | growth inhibition call (S. aureus RN4220)

C[C@H](CO)N1C[C@H](C)[C@@H](CN(C)S(=O)(=O)c2ccccc2)Oc2ccc(NC(=O)CCCN(C)C)cc2C1=O
inactive: cytotoxicity call (HSkMC) | cytotoxicity call (HepG2) | growth inhibition call (S. aureus RN4220)

COc1ccc(CN(C)C[C@H]2Oc3ccc(NS(=O)(=O)c4c(C)noc4C)cc3CC(=O)N([C@@H](C)CO)C[C@@H]2C)cc1
inactive: cytotoxicity call (HSkMC) | cytotoxicity call (HepG2) | growth inhibition call (S. aureus RN4220)

C[C@@H]1CN([C@H](C)CO)C(=O)c2cc(C#CC3(O)CCCC3)cnc2O[C@H]1CN(C)C(=O)Nc1ccc2c(c1)OCO2
inactive: cytotoxicity call (HSkMC) | cytotoxicity call (HepG2) | growth inhibition call (S. aureus RN4220)

COc1ccc2c3c(n(c2c1)C)[C@@H](CO)N(C[C@]13CN(C1)S(=O)(=O)c1cn(cn1)C)C(=O)Nc1ccc(cc1)F
inactive: cytotoxicity call (HSkMC) | cytotoxicity call (HepG2) | growth inhibition call (S. aureus RN4220)

O=C(NCCCN1CCOCC1)[C@@H]1N[C@@H]2c3ccc(C4=CCCCC4)c(=O)n3C[C@@H]2[C@H]1CO
inactive: cytotoxicity call (HSkMC) | cytotoxicity call (HepG2) | growth inhibition call (S. aureus RN4220)

COc1ccccc1-c1cccc(-c2nc(C(=O)NCc3ccncc3)cc3c2[C@@H](CCO)N([S@@](=O)C(C)(C)C)C3)c1
inactive: cytotoxicity call (HSkMC) | cytotoxicity call (HepG2) | growth inhibition call (S. aureus RN4220)

CC=Cc1ccc2n(c1=O)C[C@H]1[C@H](CO)[C@@H](C(=O)NCCC)[C@@H]2N1S(=O)(=O)c1cn(C)cn1
inactive: cytotoxicity call (HSkMC) | cytotoxicity call (HepG2) | growth inhibition call (S. aureus RN4220)

C[C@@H]1CN([C@H](C)CO)S(=O)(=O)c2ccc(-c3ccc(C(=O)N(C)C)cc3)cc2O[C@@H]1CN(C)C(=O)C1CCC1
inactive: cytotoxicity call (HSkMC) | cytotoxicity call (HepG2) | growth inhibition call (S. aureus RN4220)

C[C@H](CO)N1C[C@H](C)[C@H](CN(C)Cc2cncnc2)Oc2cc(C#CC3CCCC3)ccc2S1(=O)=O
inactive: cytotoxicity call (HSkMC) | cytotoxicity call (HepG2) | growth inhibition call (S. aureus RN4220)

C[C@@H]1CCCCO[C@@H](CN(C)Cc2ccc(C(F)(F)F)cc2)[C@@H](C)CN([C@@H](C)CO)C(=O)c2cc(NS(=O)(=O)c3ccc(F)cc3)ccc2O1
inactive: cytotoxicity call (HSkMC) | cytotoxicity call (HepG2) | growth inhibition call (S. aureus RN4220)

COc1ccc(S(=O)(=O)Nc2cccc3c2O[C@H](CN(C)S(=O)(=O)c2ccc(C)cc2)[C@@H](C)CN([C@@H](C)CO)C3=O)cc1
inactive: cytotoxicity call (HSkMC) | cytotoxicity call (HepG2) | growth inhibition call (S. aureus RN4220)

C[C@H]1CN([C@@H](C)CO)C(=O)Cc2cc(NC(=O)Nc3cccc4ccccc34)ccc2O[C@@H]1CN(C)S(=O)(=O)c1cccs1
inactive: cytotoxicity call (HSkMC) | cytotoxicity call (HepG2) | growth inhibition call (S. aureus RN4220)

Cc1noc(C)c1S(=O)(=O)Nc1ccc2c(c1)CC(=O)N([C@@H](C)CO)C[C@@H](C)[C@@H](CN(C)Cc1ccccc1)O2
inactive: cytotoxicity call (HSkMC) | cytotoxicity call (HepG2) | growth inhibition call (S. aureus RN4220)

C[C@H](CO)N1C[C@H](C)[C@H](CN(C)C(=O)C2CCOCC2)Oc2cc(C3=CCCCC3)ccc2S1(=O)=O
inactive: cytotoxicity call (HSkMC) | cytotoxicity call (HepG2) | growth inhibition call (S. aureus RN4220)

C[C@@H]1CN([C@H](C)CO)C(=O)c2cc(-c3cncnc3)cnc2O[C@@H]1CN(C)C(=O)CN1CCOCC1
inactive: cytotoxicity call (HSkMC) | cytotoxicity call (HepG2) | growth inhibition call (S. aureus RN4220)

Cc1ccc(S(=O)(=O)N(C)C[C@@H]2OCCCC[C@@H](C)Oc3ccc(NC(=O)Nc4ccc(F)cc4)cc3C(=O)N([C@H](C)CO)C[C@@H]2C)cc1
inactive: cytotoxicity call (HSkMC) | cytotoxicity call (HepG2) | growth inhibition call (S. aureus RN4220)
